Data: US20260242362A1, “PREPARATION OF 3,4,5-TRISUBSTITUTED TRIAZOLES AND METHODS OF USING THE SAME” (University of Florida Research Foundation, Incorporated, priority 2023, published 2026)
At least one structure is not confirmed: it was looked up by name or label, or the drawing left a doubt.

Key:
[1] = target: T1, kappa opioid receptor (Homo sapiens, UniProt P41145); assay: GTPγS binding assay (G-protein activation); format: biochemical; conditions: for GTPγS Emax (% U60): relative to U69,593 = 100% Emax
[2] = target: T1, kappa opioid receptor; assay: PathHunter DiscoverX β-arrestin2 recruitment (enzyme fragment complementation) assay; format: cell-based; conditions: relative to U69,593 = 100% Emax; ~ did not plateau at 100%
[3] = target: T1, kappa opioid receptor; assay: Bias analysis by operational model, G protein vs βarrestin2, U69,593 as reference agonist; conditions: U69,593 reference agonist; global parameter fitting
[4] = tested on: adult male C57BL6/J mice; assay: Standard pruritis mouse model (chloroquine phosphate-induced scratching); format: in vivo
[5] = tested on: adult male C57BL6 mice; assay: Elevated plus maze mouse model for anxiety; format: in vivo
[6] = tested on: adult male C57BL6/J mice; assay: Open field test box mouse model for sedation; conditions: 60 minutes

Compound | GTPγS Emax (% U60) [1] [% U60] | β-arrestin2 Emax (% U60) [2] [% U60] | Bias (bias factor 10^ΔΔ(logτ/KA) Gprotein-Barr2) [3] | further results
Cc1ccc(CCc2nnc(-c3ccccn3)n2CC2CCCO2)cc1C(F)(F)F (stereo not shown) [Compound 17a] | 81 | 121 |  | 
Brc1ccc(CCc2nnc(-c3ccccn3)n2Cc2cccs2)cc1 [Compound 28] |  |  | 29 | 
Cc1ccc(CCc2nnc(-c3ccccn3)n2Cc2ncco2)cc1C(F)(F)F [Compound 5a] | 97 | 88 |  | 
FC(F)(F)c1ccc(CCc2nnc(-c3ccccn3)n2Cc2cccs2)cc1Cl [Compound 34] | 95 | 116 |  | 
Cc1ccc(CCc2nnc(-c3ccccn3)n2Cc2cccnc2)cc1C(F)(F)F [Compound 11] |  |  | 2 | KOR potency / activity in words (SAR commentary) [1]: tolerated
Cc1ccc(CCc2nnc(-c3ccccn3)n2Cc2ccsc2)cc1C(F)(F)F [Compound 6] | 85 | 125 |  | 
Cc1ccc(CCc2nnc(-c3ccccn3)n2Cc2cccs2)cc1C(F)(F)F [Compound 5] |  |  |  | scratching following injection of chloroquine phosphate ([4]; chloroquine phosphate 40 mg/kg s.c. nape of neck, compound 15 min prior): decreases scratching; anti-puritic activity compared with U50,488H and Triazole 1.1 ([4]; mouse): essentially equipotent; time spent in the distal ends of the open arms ([5]; 5 mg/kg, injected 30 minutes prior, p<0.01): increased the time spent in the distal ends of the open arms; anxiolytic properties ([5]; elevated plus maze): has anxiolytic properties; time spent in the center of the open field box [6]: increased center time
Cc1ccc(CCc2nnc(-c3ccccn3)n2CCc2ccccc2)cc1C(F)(F)F [Compound 13a] | 96 | 78 |  | 
Clc1ccc(CCc2nnc(-c3ccccn3)n2Cc2cccs2)c(Cl)c1 [Compound 33] |  |  | 77 | 
Cc1ccc(CCc2nnc(-c3ccccn3)n2Cc2nccs2)cc1C(F)(F)F [Compound 7] |  |  | 13 | 
Cc1ccc(CCc2nnc(-c3ccccn3)n2-c2cccc3ccccc23)cc1C(F)(F)F [Compound 11a] | 89 | 51 |  | 
Brc1cccc(CCc2nnc(-c3ccccn3)n2Cc2cccs2)c1 [Compound 29] |  |  | 22 | 
Cc1ccc(CCc2nnc(-c3cccn3C)n2Cc2cccs2)cc1C(F)(F)F [Compound 23] | 94 | 105 |  | 
Fc1ccc(CCc2nnc(-c3ccccn3)n2Cc2cccs2)cc1 [Compound 26] |  |  | 4 | 
Cc1ccc(CCc2nnc(-c3ccccn3)n2-c2ccc3ccccc3c2)cc1C(F)(F)F [Compound 12a] | 140 | 41 |  | 
Cc1ccc(CCc2nnc(-c3ccccn3)n2Cc2ccco2)cc1C(F)(F)F [Compound 2] |  |  | 11 | KOR potency / activity in words (SAR commentary) [1]: good activity
Clc1ccc(CCc2nnc(-c3ccccn3)n2Cc2cccs2)cc1 [Compound 27] |  |  | 25 | 
